This is an account of results in the supplement of paper PMC10369915.

Some of the results follow. Rule as the data show it: active = 3.2 or more and inactive = the rest. Only a few entries rise above the background.
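Also: displayed peptides selected on beads carrying the immobilized SH2 domain, with library peptides lacking any tyrosine serving as negative controls.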

One experiment has as its target SHP2 C-SH2 domain E139D. Briefly: enrichment score (SH2-bound / input frequency) (ratio); bacterial display of known human phosphotyrosine sites (pTyr-Var adds point mutants) read by sequencing; higher = stronger binding; tyrosines were phosphorylated by kinases first. The conditions noted are these: peptide library: pTyr-Var.
For AELKLYSGAQT [ZAP70_Y178_R175L], the enrichment score is inactive: 1.14.

With TVLEPYTDPFF [ZC3H18_Y367_A368T_YF], the enrichment score is inactive: 0.881.

LLRLAYLADIF [ZBED5_Y476]: the enrichment score was active: 4.1.

On to KMKGDYYRSLA [YWHAG_Y130_Y133S], for which the enrichment score was inactive: 1.01.

Consider GDFFCYLAEVA [YWHAG_Y133_R132C_YF], for which the enrichment score was inactive: 1.26.

For SYSGEYGSGGG [ZG16_Y30_G32S], the enrichment score was inactive: 0.48.

Consider TVLEPYTDPYY [ZC3H18_Y367_A368T], for which the enrichment score was inactive: 0.4.

As to GDYYRYLAEVA [YWHAG_Y133], the enrichment score is inactive: 0.819.

On to PYADPYYDYEI [ZC3H18_Y371], for which the enrichment score was inactive: 0.908.

On to TVLEPYADPYY [ZC3H18_Y367], for which the enrichment score is inactive: 1.49.

In the case of TGFRPYVCPFD [YY1_Y383_D380Y_YF], the enrichment score is inactive: 1.2.

In the case of WPLKWYVPECI [ZAP70_Y506_A507V], the enrichment score was inactive: 2.24.

In the case of TGYRPYVCPFD [YY1_Y383_D380Y], the enrichment score is inactive: 0.781.

For FADPFYDFEIE [ZC3H18_Y372_YF], the enrichment score is inactive: 0.693.

With LLSVAYKNVVG [YWHAG_Y49], the enrichment score is inactive: 1.

Turning to DVQNEYDSNHC [ZFYVE16_Y36_A35E], the enrichment score is inactive: 0.452.

With MKGDYYRSLAE [YWHAG_Y131_Y133S], the enrichment score is inactive: 0.524.

On to TVLEPYADPFF [ZC3H18_Y367_YF], for which the enrichment score was inactive: 0.548.

Another experiment deals with SHP2 C-SH2 domain wild-type. The experiment is described as above. The conditions noted are these: peptide library: pTyr-Var.
Consider AELKLYSGAQT [ZAP70_Y178_R175L], for which the enrichment score was inactive: 0.915.

TVLEPYTDPFF [ZC3H18_Y367_A368T_YF]: the enrichment score is inactive: 0.744.

Turning to LLRLAYLADIF [ZBED5_Y476], the enrichment score was active: 3.27.

In the case of KMKGDYYRSLA [YWHAG_Y130_Y133S], the enrichment score was inactive: 0.72.

As for GDFFCYLAEVA [YWHAG_Y133_R132C_YF], the enrichment score was inactive: 0.973.

For SYSGEYGSGGG [ZG16_Y30_G32S], the enrichment score was inactive: 0.447.

In the case of TVLEPYTDPYY [ZC3H18_Y367_A368T], the enrichment score is inactive: 0.476.

In the case of GDYYRYLAEVA [YWHAG_Y133], the enrichment score was inactive: 0.888.

In the case of PYADPYYDYEI [ZC3H18_Y371], the enrichment score was inactive: 0.986.

Consider TVLEPYADPYY [ZC3H18_Y367], for which the enrichment score is inactive: 0.835.

As for TGFRPYVCPFD [YY1_Y383_D380Y_YF], the enrichment score was inactive: 0.977.

Turning to WPLKWYVPECI [ZAP70_Y506_A507V], the enrichment score was inactive: 1.76.

TGYRPYVCPFD [YY1_Y383_D380Y]: the enrichment score was inactive: 0.873.

On to FADPFYDFEIE [ZC3H18_Y372_YF], for which the enrichment score is inactive: 0.65.

Turning to LLSVAYKNVVG [YWHAG_Y49], the enrichment score was inactive: 1.09.

On to DVQNEYDSNHC [ZFYVE16_Y36_A35E], for which the enrichment score was inactive: 0.404.

As to MKGDYYRSLAE [YWHAG_Y131_Y133S], the enrichment score was inactive: 0.588.

Take TVLEPYADPFF [ZC3H18_Y367_YF]: the enrichment score is inactive: 0.534.

Another experiment addresses SHP2 N-SH2 domain L43F. The description is as above. The conditions noted are these: peptide library: pTyr-Var.
As for AELKLYSGAQT [ZAP70_Y178_R175L], the enrichment score was inactive: 0.862.

For the molecule TVLEPYTDPFF [ZC3H18_Y367_A368T_YF], the enrichment score was inactive: 1.9.

Regarding LLRLAYLADIF [ZBED5_Y476], the enrichment score is active: 3.78.

On to KMKGDYYRSLA [YWHAG_Y130_Y133S], for which the enrichment score is inactive: 0.85.

In the case of GDFFCYLAEVA [YWHAG_Y133_R132C_YF], the enrichment score was inactive: 0.87.

For the molecule SYSGEYGSGGG [ZG16_Y30_G32S], the enrichment score is inactive: 0.534.

Take TVLEPYTDPYY [ZC3H18_Y367_A368T]: the enrichment score is inactive: 0.53.

As to GDYYRYLAEVA [YWHAG_Y133], the enrichment score was inactive: 0.745.

PYADPYYDYEI [ZC3H18_Y371]: the enrichment score is inactive: 0.628.

Turning to TVLEPYADPYY [ZC3H18_Y367], the enrichment score is inactive: 0.929.

For TGFRPYVCPFD [YY1_Y383_D380Y_YF], the enrichment score was inactive: 0.52.

Turning to WPLKWYVPECI [ZAP70_Y506_A507V], the enrichment score was inactive: 1.85.

Consider TGYRPYVCPFD [YY1_Y383_D380Y], for which the enrichment score was inactive: 0.751.

For FADPFYDFEIE [ZC3H18_Y372_YF], the enrichment score is inactive: 0.737.

Take LLSVAYKNVVG [YWHAG_Y49]: the enrichment score was inactive: 1.1.

DVQNEYDSNHC [ZFYVE16_Y36_A35E]: the enrichment score was inactive: 0.407.

Regarding MKGDYYRSLAE [YWHAG_Y131_Y133S], the enrichment score is inactive: 0.666.

With TVLEPYADPFF [ZC3H18_Y367_YF], the enrichment score is inactive: 0.639.

The target in a further experiment is SHP2 N-SH2 domain T42A. The description is as above. The conditions noted are these: peptide library: pTyr-Var.
Regarding AELKLYSGAQT [ZAP70_Y178_R175L], the enrichment score was inactive: 1.05.

In the case of TVLEPYTDPFF [ZC3H18_Y367_A368T_YF], the enrichment score was inactive: 1.72.

In the case of LLRLAYLADIF [ZBED5_Y476], the enrichment score is inactive: 2.73.

As to KMKGDYYRSLA [YWHAG_Y130_Y133S], the enrichment score was inactive: 0.727.

Consider GDFFCYLAEVA [YWHAG_Y133_R132C_YF], for which the enrichment score is inactive: 0.839.

Take SYSGEYGSGGG [ZG16_Y30_G32S]: the enrichment score was inactive: 0.496.

Consider TVLEPYTDPYY [ZC3H18_Y367_A368T], for which the enrichment score is inactive: 0.428.

On to GDYYRYLAEVA [YWHAG_Y133], for which the enrichment score was inactive: 0.891.

As to PYADPYYDYEI [ZC3H18_Y371], the enrichment score is inactive: 0.696.

On to TVLEPYADPYY [ZC3H18_Y367], for which the enrichment score is inactive: 0.693.

For TGFRPYVCPFD [YY1_Y383_D380Y_YF], the enrichment score was inactive: 0.31.

Turning to WPLKWYVPECI [ZAP70_Y506_A507V], the enrichment score is inactive: 1.71.

As for TGYRPYVCPFD [YY1_Y383_D380Y], the enrichment score is inactive: 0.809.

With FADPFYDFEIE [ZC3H18_Y372_YF], the enrichment score was inactive: 0.564.

LLSVAYKNVVG [YWHAG_Y49]: the enrichment score is inactive: 0.975.

Regarding DVQNEYDSNHC [ZFYVE16_Y36_A35E], the enrichment score is inactive: 0.369.

As for MKGDYYRSLAE [YWHAG_Y131_Y133S], the enrichment score is inactive: 0.509.

As for TVLEPYADPFF [ZC3H18_Y367_YF], the enrichment score was inactive: 0.749.

The target of a further experiment is SHP2 N-SH2 domain T52S. The description is as above. The conditions noted are these: peptide library: pTyr-Var.
With AELKLYSGAQT [ZAP70_Y178_R175L], the enrichment score is inactive: 0.872.

Turning to TVLEPYTDPFF [ZC3H18_Y367_A368T_YF], the enrichment score was inactive: 2.05.

As for LLRLAYLADIF [ZBED5_Y476], the enrichment score was active: 4.52.

As to KMKGDYYRSLA [YWHAG_Y130_Y133S], the enrichment score is inactive: 0.801.

In the case of GDFFCYLAEVA [YWHAG_Y133_R132C_YF], the enrichment score is inactive: 0.771.

As to SYSGEYGSGGG [ZG16_Y30_G32S], the enrichment score is inactive: 0.429.

Take TVLEPYTDPYY [ZC3H18_Y367_A368T]: the enrichment score was inactive: 0.407.

As to GDYYRYLAEVA [YWHAG_Y133], the enrichment score was inactive: 0.71.

For PYADPYYDYEI [ZC3H18_Y371], the enrichment score was inactive: 1.01.

Consider TVLEPYADPYY [ZC3H18_Y367], for which the enrichment score is inactive: 1.11.

In the case of TGFRPYVCPFD [YY1_Y383_D380Y_YF], the enrichment score was inactive: 0.61.

Take WPLKWYVPECI [ZAP70_Y506_A507V]: the enrichment score was inactive: 1.54.

Consider TGYRPYVCPFD [YY1_Y383_D380Y], for which the enrichment score is inactive: 0.53.

As to FADPFYDFEIE [ZC3H18_Y372_YF], the enrichment score was inactive: 0.672.

As to LLSVAYKNVVG [YWHAG_Y49], the enrichment score is inactive: 1.13.

For the molecule DVQNEYDSNHC [ZFYVE16_Y36_A35E], the enrichment score was inactive: 0.457.

On to MKGDYYRSLAE [YWHAG_Y131_Y133S], for which the enrichment score is inactive: 0.506.

With TVLEPYADPFF [ZC3H18_Y367_YF], the enrichment score is inactive: 0.713.

For the next experiment, the target named is SHP2 N-SH2 domain wild-type. Described as above. The conditions noted are these: peptide library: pTyr-Var.
Take AELKLYSGAQT [ZAP70_Y178_R175L]: the enrichment score was inactive: 1.14.

Turning to TVLEPYTDPFF [ZC3H18_Y367_A368T_YF], the enrichment score is inactive: 0.835.

Consider LLRLAYLADIF [ZBED5_Y476], for which the enrichment score was active: 3.62.

Consider KMKGDYYRSLA [YWHAG_Y130_Y133S], for which the enrichment score is inactive: 0.864.

Consider GDFFCYLAEVA [YWHAG_Y133_R132C_YF], for which the enrichment score is inactive: 1.03.

SYSGEYGSGGG [ZG16_Y30_G32S]: the enrichment score was inactive: 0.661.

Regarding TVLEPYTDPYY [ZC3H18_Y367_A368T], the enrichment score was inactive: 0.494.

For GDYYRYLAEVA [YWHAG_Y133], the enrichment score is inactive: 0.838.

Turning to PYADPYYDYEI [ZC3H18_Y371], the enrichment score was inactive: 0.795.

As to TVLEPYADPYY [ZC3H18_Y367], the enrichment score is inactive: 1.22.

TGFRPYVCPFD [YY1_Y383_D380Y_YF]: the enrichment score is inactive: 1.23.

For the molecule WPLKWYVPECI [ZAP70_Y506_A507V], the enrichment score was inactive: 2.16.

TGYRPYVCPFD [YY1_Y383_D380Y]: the enrichment score is inactive: 1.05.

For FADPFYDFEIE [ZC3H18_Y372_YF], the enrichment score is inactive: 0.778.

As to LLSVAYKNVVG [YWHAG_Y49], the enrichment score is inactive: 1.12.

In the case of DVQNEYDSNHC [ZFYVE16_Y36_A35E], the enrichment score is inactive: 0.49.

MKGDYYRSLAE [YWHAG_Y131_Y133S]: the enrichment score was inactive: 0.578.

In the case of TVLEPYADPFF [ZC3H18_Y367_YF], the enrichment score was inactive: 0.753.
